This note sets out measurements from US20260265390A1 (SHANDONG SIMCERE BIOPHARMACEUTICAL, published 2026).

The target in test [1] is T1, human BCMA (B cell maturation antigen), expressed on cells (human, UniProt Q02223 1-184).
T1 construct: whole, on cells; Overexpressed on Flp-in CHO cells; also called Flp-inCHO-human BCMA cells; CD269
T1 sequence (looked up): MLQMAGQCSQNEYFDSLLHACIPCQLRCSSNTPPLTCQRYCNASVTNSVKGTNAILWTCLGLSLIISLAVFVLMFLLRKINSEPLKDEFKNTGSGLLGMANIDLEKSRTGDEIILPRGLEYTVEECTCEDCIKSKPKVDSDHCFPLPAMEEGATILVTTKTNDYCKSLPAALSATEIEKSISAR
In words: FACS, Flp-inCHO-human BCMA cells. As to the method: (§1) Flp-inCHO-human BCMA cells and CHOK1-human GPRC5D cells were scale-up cultured in T-75 cell culture flask to the logarithmic growth phase, respectively, and the cells were pipetted to obtain a single cell suspension. After the cells were counted and centrifuged, the cell precipitate was resuspended to 2×10⁶ cells per milliliter with a FACS buffer (PBS+2% fetal bovine serum). The suspension was added to a 96-well FACS reaction plate at 50 μl/well. 8 concentrations of the anti-BCMA-GPRC5D-CD3 antibodies or control antibodies were added at 50 μl/well, wherein gradient dilution was performed at a dilution ratio of 5 from a concentration of 100 nM. The cells were incubated at 4° C. for 1 h. The obtained mixture was centrifuged and washed 3 times with a PBS buffer. […] The obtained mixture was centrifuged and washed 3 times with a PBS buffer. 100 μl of the mixture was taken for detection and result analysis by FACS (FACS Canto™, purchased from BD Company). Data analysis was performed by software (FlowJo) to obtain the mean fluorescence intensity (MFI) of the cells. Then, a software (GraphPad Prism8) was used for analysis, data fitting and EC50 calculation.
On the technique in general: In flow cytometry, cells or beads pass a laser one at a time.

The target of test [2] is T2, human CD3, endogenous on Jurkat cells and on activated human PBMC (human, UniProt P07766; P04234).
T2 construct: whole, on cells; CD3 complex as it stands on T cells
As to the kind of experiment: FACS, Jurkat cells.

The target in test [3] is T2, human CD3, endogenous on Jurkat cells …. In words: FACS, activated human PBMC.
The target in test [4] is T3, monkey CD3, on activated monkey PBMC (monkey).
T3 construct: whole, on cells
In words: FACS, activated monkey PBMC.

The target in test [5] is T4, human GPRC5D, expressed on cells (human, UniProt Q9NZD1 1-345).
T4 construct: whole, on cells; Overexpressed on CHOK1 cells; also called CHOK1-human GPRC5D cells
As to the kind of experiment: FACS, CHOK1-human GPRC5D cells. As to the method: as §1

T2 sequence (P07766 23-207, chain 1 of 2): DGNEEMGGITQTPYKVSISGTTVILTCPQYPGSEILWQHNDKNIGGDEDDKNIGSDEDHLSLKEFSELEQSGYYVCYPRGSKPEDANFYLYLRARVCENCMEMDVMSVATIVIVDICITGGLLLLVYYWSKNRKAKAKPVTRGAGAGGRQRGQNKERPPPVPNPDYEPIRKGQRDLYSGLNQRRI
T2 sequence (P04234 22-171, chain 2 of 2, further chain): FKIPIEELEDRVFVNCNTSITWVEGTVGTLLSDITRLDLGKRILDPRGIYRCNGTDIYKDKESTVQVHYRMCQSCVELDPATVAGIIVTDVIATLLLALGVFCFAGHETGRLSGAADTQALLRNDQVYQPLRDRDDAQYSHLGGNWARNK
T4 sequence (Q9NZD1 whole entry): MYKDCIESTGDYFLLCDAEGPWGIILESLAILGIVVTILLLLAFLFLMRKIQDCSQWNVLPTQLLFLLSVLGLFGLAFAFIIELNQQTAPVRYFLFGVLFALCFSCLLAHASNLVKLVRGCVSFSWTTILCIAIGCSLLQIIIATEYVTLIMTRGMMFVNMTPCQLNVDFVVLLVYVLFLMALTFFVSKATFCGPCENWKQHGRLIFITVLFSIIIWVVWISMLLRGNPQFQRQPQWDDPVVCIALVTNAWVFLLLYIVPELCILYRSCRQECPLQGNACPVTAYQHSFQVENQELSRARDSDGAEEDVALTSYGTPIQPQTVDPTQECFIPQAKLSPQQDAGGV

B1: Tri-17 anti-BCMA-GPRC5D-CD3 trispecific antibody (other)
VHH: EVQLVESGGGLVQPGGSLRLSCSASGFTLDYYMIGWFRQAPGKEREGLSSISPADGSTYYADSVKGRFTISRDSSKNTVYLQMNSLRAEDTAVYYCAAGNEATISWGFGPWEYDYWGQGTMVTVSS
VH 1: EVQLVQSGAEVKKPGSSVKVSCKASGYTFTSYGISWVRQAPGQGLEWMGEIYPRSGNTYYNEKFKGRVTLTADKSTSTAYMELSSLRSEDTAVYYCARGRAYGRNYPMDYWGQGTTVTVSS
VL 1: EIVLTQSPATLSLSPGERATLSCRASQSIGTSIHWYQQKPGQSPRLLIKYASESISGIPARFSGSGSGTDFTLTISSLEPEDFAVYYCQQSNSWPYTFGGGTKVEIK
VH 2: EVQLVESGGGVVQPGRSLRLSCAASGFTFTDYYMSWVRQAPGKGLEWVAMSRNKAKGHTIEYSSSVKGRFTISRDNSKNTLYLQMNSLRAEDTAVYYCARDTYESYDGYFDVWGQGTTVTVSS
VL 2: DIVMTQSPDSLAVSLGERATINCKSSQSLFNSRSRKNYLAWYQQKPGQTPKLLIYWASIRESGVPDRFSGSGSGTDFTLTISSLQAEDVAVYYCKQSYYLYTFGQGTKLEIK
chain: [letters of human IgG4 Fc with S228P F234A L235A (EU numbers) not shown]
notes: Trispecific antibody; Symmetrical (purification method A)
The molecule B1 registered an EC50 in test [1] of 2.97 nM.

B2: Tri-32 anti-BCMA-GPRC5D-CD3 trispecific antibody (other)
VHH: B1 VHH
VH 1: B1 VH 1
VL 1: B1 VL 1
VH 2: B1 VH 2
VL 2: B1 VL 2
chain: B1 chain
notes: as for B1
As to B2, the EC50 in test [2] turned out to be 370 nM; in test [1], 2.03 nM.

B3: Tri-60 anti-BCMA-GPRC5D-CD3 trispecific antibody (other)
VH 1: EGQMVQSGAEVKKPGSSVKVSCKASGYMFTDHTFHWVRQAPGQGLEWMGYIYPRDQNTKYNEKFKGRVTITADKSTSTAYMELSSLRSEDTAVYYCARAGYYGSSHAMDYWGQGTTVTVSS
VL 1: DIQMTQSPSSLSASVGDRVTITCKASQDVSTAVAWYQQKPGKSPRLLIYSASSRYTGVPSRFSGSGSGTDFTFTISSLQPEDIATYYCQQLYSTPWTFGGGTKVEIK
VH 2: B1 VH 1
VL 2: B1 VL 1
VH 3: B1 VH 2
VL 3: B1 VL 2
chain: B1 chain
notes: as for B1
B3: the “Maximum mean fluorescence intensity” value in test [2] came out at 2230; in test [3], 2690; in test [4], 3570. The EC50 in test [1] was determined as 6.84 nM; in test [5], 0.92 nM.

B4: Tri-29 anti-BCMA-GPRC5D-CD3 trispecific antibody (other)
VHH: B1 VHH
VH 1: B1 VH 1
VL 1: B1 VL 1
VH 2: B1 VH 2
VL 2: B1 VL 2
chain: B1 chain
notes: as for B1
Regarding B4, the EC50 worked out at 2.27 nM in test [1] and 161 nM in test [3].

B5: Tri-55 anti-BCMA-GPRC5D-CD3 trispecific antibody (other)
VHH: EVQLVESGGGLVQPGGSLRLSCAASESISSIHIMAWYRQAPGKQRELVAGIRNDGSTVYVDSVKGRFTISRDNAKNSLYLQMNSLRAEDTAVYYCNADQGFGSYSEWERRSRWGQGTTVTVSS
VH 1: B1 VH 1
VL 1: B1 VL 1
VH 2: B1 VH 2
VL 2: B1 VL 2
chain: B1 chain
notes: as for B1
Turning to B5, the EC50 in test [2] is 179 nM; in test [1], 0.92 nM; in test [3] it was 149 nM; in test [4] it was 159 nM.

B6: Tri-35 anti-BCMA-GPRC5D-CD3 trispecific antibody (other)
VHH: B1 VHH
VH 1: B1 VH 1
VL 1: B1 VL 1
VH 2: B1 VH 2
VL 2: B1 VL 2
chain: B1 chain
notes: as for B1
With B6, the EC50 in test [1] is 2.53 nM; in test [3], 81.4 nM.

B7: Tri-59 anti-BCMA-GPRC5D-CD3 trispecific antibody (other)
VHH: B5 VHH
VH 1: B1 VH 1
VL 1: B1 VL 1
VH 2: B1 VH 2
VL 2: B1 VL 2
chain: B1 chain
notes: as for B1
As to B7, the EC50 in test [1] stood at 1.21 nM; in test [3], 92.1 nM; in test [4], 249 nM.

Usually EC50 stands for the midpoint of the concentration-response curve.
